Reference: the antibiotic and cytotoxicity screens of Wong et al. (2023)
The list shows a part of the results.

Legend:
HSkMC = human skeletal muscle cells; experiment: cytotoxicity call (relative viability < 0.9); conditions: 10 µM
HepG2 = experiment: cytotoxicity call (relative viability < 0.9); conditions: 10 µM
S. aureus RN4220 = experiment: growth inhibition call (relative growth <= 0.2); conditions: 50 µM

Compound | cytotoxicity call (HSkMC) | cytotoxicity call (HepG2) | growth inhibition call (S. aureus RN4220)
CCC(=O)N1C[C@]2(C1)CN([C@@H](CO)c1[nH]c3cc(ccc3c12)OC)S(=O)(=O)C | inactive | inactive | inactive
C[C@@H]1CCCCO[C@H](CN(C)S(C)(=O)=O)[C@@H](C)CN([C@H](C)CO)C(=O)c2cc(NS(=O)(=O)c3cn(C)cn3)ccc2O1 | inactive | inactive | inactive
NCC(O)c1ccc(O)c(O)c1.O=C(O)C(O)C(O)C(=O)O (configuration not stated) | inactive | active | inactive
NC(=O)[C@H]1[C@@H]2C(=O)O[C@@H](c3ccccc3)[C@@H](c3ccccc3)N2[C@@H](c2ccc(OCCO)cc2)[C@]12C(=O)Nc1ccc(C#CC3(O)CCCCCC3)cc12 | inactive | inactive | inactive
O=C(NO)c1ccc(C(=O)N/N=C/[C@H](O)[C@@H](O)[C@H](O)[C@H](O)CO[C@H]2O[C@H](CO)[C@H](O)[C@H](O)[C@H]2O)cc1 | inactive | inactive | inactive
Cc1nccn1CCC(=O)O | inactive | inactive | inactive
C[C@H](O)C#Cc1ccc2c(c1)O[C@H](CN(C)C(=O)c1ccccc1)[C@H](C)CN([C@H](C)CO)S2(=O)=O | inactive | inactive | inactive
C[C@@H]1CCCCO[C@@H](CN(C)CC2CCCCC2)[C@@H](C)CN([C@H](C)CO)C(=O)c2cc(NC(=O)Nc3ccc4c(c3)OCO4)ccc2O1 | inactive | active | inactive
CC(C)CC#Cc1ccc2c(c1)O[C@@H](CN(C)C(=O)c1ccccn1)[C@H](C)CN([C@H](C)CO)S2(=O)=O | inactive | inactive | inactive
